About 5,000 (1.2%) of roughly 410,000 compounds were called active. Inconclusive means that the source gave no clear call. Such entries were picked first, then a sample of the others. Calls follow the shape of the dose curve; as a rule, active = well fitted inhibition curve with a large enough effect; inconclusive = small, poorly fitted or top-dose-only effect; inactive = no such curve, though single readings can be large or run the other way. Potencies of inconclusive entries are doubtful fits and often do not repeat.
assay: qHTS for Inhibitors of TGF-b; conditions: HepG2 CAGA-GFP TGF-b/SMAD3 reporter, GFP fluorescence, 18 h, TGF-beta stimulated, 500 pg/mL final; series mostly up to 46.1 µM; activity, negative = inhibition: at the top concentration; also: nearly all actives have a fitted effect of over 65% in size
Summary of the method: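 Using HEPG2 CAGA-GFP reporter cells at 1000 cells/well, we pinned test compounds, stimulated with recombinant TGF-beta (500 pg/mL final) and measured total well GFP after 18 h.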
% is scaled to controls: 0 for no effect and ±100 for the full control effect; potency is read from the fitted curve at half-maximal effect; tags tell the direction and shape of the fitted curve.

For `Cc1ccc(Cn2c(SCC(=O)Nc3cc(C)on3)nc3ccccc3c2=O)cc1`, which “activity, negative = inhibition” value is on record?
Its value is inactive: 1.37%.

For `C[C@H](O)[C@@H]1CN2CCc3c([nH]c4ccc(-c5ccc6c(c5)OCO6)cc34)[C@@H]2C[C@@H]1N(C)C(=O)Nc1ccc(F)cc1`, which Potency is on record?
Its Potency is inconclusive: 25.1 µM [inhibitor, single point].

Which “activity, negative = inhibition” value does the source give for `CCN(CC)S(=O)(=O)c1ccc(C(=O)Nc2nnc(NC(=S)Nc3ccccc3)s2)cc1` here?
The value was inactive: -3.61%.

Which Potency does the source give for `COc1cc(/C=C/C(=O)c2ccc(Cl)s2)cc(OC)c1O` here?
The Potency was inconclusive: 31.6 µM [inhibitor, single point].

With `COc1ccc(S(=O)(=O)N2CCN(C(=O)CC(C)C)CC2)cc1` as the molecule, how does the Potency read?
The Potency was inconclusive: 5.62 µM [inhibitor, full curve, poor fit].

For `CSc1nc(N)nc2c1ncn2CC(=O)NCc1ccccc1`, which “activity, negative = inhibition” value is on record?
The value was inactive: -0.91%.

Which Potency does the source give for `C(=N\Nc1nc2ccccc2[nH]1)/c1ccccn1` here?
The Potency was inconclusive: 14.1 µM [inhibitor, partial curve].

With `CSc1ccc(CCNC(=O)C2CCN(c3nc4ccccc4nc3C(F)(F)F)CC2)cc1` as the molecule, how does the Potency read?
The Potency was inconclusive: 3.55 µM [inhibitor, single point].

With `CNC(=O)C1(C)C=CC2(CCCCC2)N1C(=O)OC` (centres undefined) as the molecule, how does the Potency read?
The Potency was inconclusive: 5.62 µM [inhibitor, single point].

Which “activity, negative = inhibition” value does the source give for `CC(C)(C)c1ccc(C(=O)NCc2nnc(SCC(=O)NCC3CCCO3)o2)cc1` (centres undefined) here?
The value was inactive: 15.4%.

With `COc1ccc(CCC(=O)NCCOc2ccc(Cl)cc2)cc1` as the molecule, how does the Potency read?
The Potency was inconclusive: 35.5 µM [inhibitor, single point].

With `C=CC[C@@H](CC(=O)N(CCO)Cc1ccccc1)C(=O)N[C@H](COC(=O)[C@@H](CC=C)Cc1ccc(F)cc1)c1ccccc1` as the molecule, how does the Potency read?
Its Potency is inconclusive: 12.6 µM [inhibitor, partial curve, poor fit].

With `Cc1ccc2c(CC(=O)Nc3ccc(F)c(S(=O)(=O)N4CCOCC4)c3)coc2c1` as the molecule, how does the Potency read?
Its Potency is inconclusive: 12.6 µM [inhibitor, partial curve].

For `CC(C)(C)CC(=O)Nc1cccc2c1CCCC2`, which Potency is on record?
The Potency was inconclusive: 35.5 µM [inhibitor, single point].

Which Potency does the source give for `CCCCCCN1C[C@H](O)[C@@H](n2cc(-c3ccc(F)cc3)nn2)C[C@@H]1c1ccc(Cl)cc1` here?
Its Potency is inconclusive: 28.2 µM [inhibitor, single point].

With `COc1ccc(C(=O)N(C)C2CCCN(Cc3ccccc3F)C2)cc1C` (centres undefined) as the molecule, how does the “activity, negative = inhibition” value read?
The value was inactive: 10.7%.

For `COc1ccc(NC(=O)CCNS(=O)(=O)c2cccc3nonc23)cc1`, which Potency is on record?
Its Potency is “inactive”.

Which Potency does the source give for `CCCc1ccc2oc(C(=O)N(Cc3nccn3C)C(C)C)c(C)c2c1` here?
The Potency was inconclusive: 3.55 µM [inhibitor, single point].

With `CN(C)/C=C/C(=O)c1ccc(S(=O)(=O)c2ccccc2)cc1` as the molecule, how does the Potency read?
The Potency was inconclusive: 35.5 µM [inhibitor, single point].

For `Cc1ccccc1OCCN1C(=O)c2ccccc2C1=O`, which “activity, negative = inhibition” value is on record?
Its value is inactive: -14.6%.

With `COc1ccc(S(=O)(=O)NCCSCc2ccccc2C)cc1Br` as the molecule, how does the Potency read?
Its Potency is inconclusive: 35.5 µM [inhibitor, single point].

With `COc1ccc(S(=O)(=O)Nc2cc3c4c(c2)CCN4C(=O)CC3)cc1OC` as the molecule, how does the “activity, negative = inhibition” value read?
Its value is inactive: -0.637%.

Which Potency does the source give for `O=C(NCC(c1ccco1)N1CCCC1)c1ccc(Cl)c(S(=O)(=O)N2CCc3ccccc32)c1` (centres undefined) here?
Its Potency is inconclusive: 4.47 µM [inhibitor, partial curve, poor fit].

With `COc1ccccc1OC(C)C(=O)NCC1(N2CCOCC2)CCCCC1` (centres undefined) as the molecule, how does the “activity, negative = inhibition” value read?
The value was inactive: 0%.

With `CN1CCN(c2ccc(CNC(=O)c3ccc(-c4ccc(F)c(F)c4)c4ccoc34)cc2)CC1` as the molecule, how does the “activity, negative = inhibition” value read?
The value was inactive: 9%.

Which Potency does the source give for `Cc1ccc(-c2nc3c(Cl)cc(Cl)cc3c(=O)n2O)cc1` here?
Its Potency is inconclusive: 35.5 µM [inhibitor, single point].

With `O=C1/C(=C/c2ccccn2)COc2ccccc21` as the molecule, how does the “activity, negative = inhibition” value read?
The value was inactive: -6.38%.

Which “activity, negative = inhibition” value does the source give for `Cc1ccc(NC(=O)NNC(=O)c2cc3ccccc3cc2O)cc1C` here?
Its value is inactive: 9.94%.

For `CCOC(=O)c1c(NC(=O)CN2CCN(C)CC2)sc(C(=O)Nc2ccccc2)c1C`, which “activity, negative = inhibition” value is on record?
The value was inactive: 0%.

For `COc1ccc(OC)c(NC(=O)CSc2c3c(nc4ccccc24)CCCC3)c1`, which Potency is on record?
The Potency was inconclusive: 20 µM [inhibitor, partial curve, poor fit].

With `Cc1cc(NC(=O)CCSc2nc(-c3ccco3)cc(C(F)(F)F)n2)n(-c2ccccc2)n1` as the molecule, how does the Potency read?
The Potency was inconclusive: 17.8 µM [inhibitor, single point].

Which Potency does the source give for `Cc1ccc(S(=O)(=O)N2CCN(C(=O)COC(=O)CNC(=O)c3ccc(Cl)cc3Cl)CC2)cc1` here?
Its Potency is inconclusive: 2.51 µM [inhibitor, full curve, poor fit].

Which “activity, negative = inhibition” value does the source give for `Cc1ccc(N2CC(NC(=O)C(=O)c3c(C)[nH]c4ccccc34)CC2=O)cc1C` (centres undefined) here?
The value was inactive: -0.288%.

Which Potency does the source give for `COc1ccc(/C=C\c2onc(C)c2S(=O)(=O)N2CCC(C(=O)Nc3ccccc3OC)CC2)cc1` here?
Its Potency is inconclusive: 12.6 µM [inhibitor, partial curve].

For `CCOC(=O)Cc1csc(NC(=O)CSc2nnc(-c3ccc(F)cc3)o2)n1`, which “activity, negative = inhibition” value is on record?
The value was inactive: -2.32%.

Which Potency does the source give for `COc1cccc(CNC(=O)C2CCN(S(=O)(=O)c3ccc4c(c3)NC(=O)C(C)S4)CC2)c1` (centres undefined) here?
The Potency was inconclusive: 14.1 µM [inhibitor, single point].

With `CC(=O)c1cccc(OCC(=O)c2cc(C)n(-c3cc(C)on3)c2C)c1` as the molecule, how does the “activity, negative = inhibition” value read?
The value was inactive: 13.2%.

With `O=S(=O)(Nc1cccc(S(=O)(=O)N2CCCC2)c1)c1cccs1` as the molecule, how does the Potency read?
Its Potency is inconclusive: 3.16 µM [inhibitor, single point].

Which Potency does the source give for `NC(c1ccccc1)c1csc(NC(=O)Nc2ccccc2Oc2ccccc2)n1` (centres undefined) here?
Its Potency is inconclusive: 22.4 µM [inhibitor, single point].

For `S=C(Nc1ccc(Br)cc1)NC1CCN(Cc2ccccc2)CC1`, which Potency is on record?
Its Potency is active: 10 µM.

For `CCOC(=O)c1ccccc1NC(=O)CN(c1ccccc1OCC)S(C)(=O)=O`, which “activity, negative = inhibition” value is on record?
Its value is inactive: 9.02%.

With `COc1ccc(/C=C2\CCc3ccccc3C2=O)cc1Cn1cccn1` as the molecule, how does the Potency read?
Its Potency is inconclusive: 12.6 µM [inhibitor, partial curve, poor fit].

Which “activity, negative = inhibition” value does the source give for `CC(Oc1ccccc1)C(=O)Nc1nnc(S(=O)(=O)Nc2ccccc2)s1` (centres undefined) here?
The value was inactive: 12.2%.

For `CCCCn1c(SCc2ccc(Cl)cc2)nc2c1c(=O)[nH]c(=O)n2C`, which “activity, negative = inhibition” value is on record?
Its value is inactive: 20.2%.

For `O=[N+]([O-])c1cc([N+](=O)[O-])c2n[nH]c(-c3ccccc3)c2c1`, which Potency is on record?
The Potency was inconclusive: 3.55 µM [inhibitor, partial curve, poor fit].

For `COC(=O)c1[nH]nc(-c2ccccc2)c1-c1ccccc1`, which Potency is on record?
Its Potency is inconclusive: 3.55 µM [inhibitor, partial curve, poor fit].

For `CSCCC(NC(=O)c1ccccc1Br)C(=O)NCc1ccc(F)cc1` (centres undefined), which “activity, negative = inhibition” value is on record?
Its value is inactive: -7%.

For `COc1ccc(CNC(=O)CSc2nnc(C3CC3)n2C2CC2)cc1`, which “activity, negative = inhibition” value is on record?
Its value is inactive: -5.68%.

With `Cc1csc(NC(=O)CSc2nsc(SCC(=O)Nc3nc(C)cs3)c2C#N)n1` as the molecule, how does the “activity, negative = inhibition” value read?
Its value is inactive: -41.9%.

For `O=c1c2cc(F)ccc2sn1-c1ccccc1Cl`, which Potency is on record?
The Potency was inconclusive: 35.5 µM [inhibitor, single point].

With `CN(O)/C=C1\C(=O)Nc2ccccc21` as the molecule, how does the “activity, negative = inhibition” value read?
Its value is inactive: 2.79%.

With `CCc1ccc(NC(=O)CSC2=C(C#N)C(c3ccc4c(c3)OCO4)CC(=O)N2)cc1` (centres undefined) as the molecule, how does the Potency read?
The Potency was inconclusive: 8.91 µM [inhibitor, partial curve, poor fit].

Which Potency does the source give for `C[C@@H]1CN([C@@H](C)CO)C(=O)c2cc(NC(=O)Nc3ccc(F)cc3)ccc2O[C@@H]1CN(C)Cc1ccc(Oc2ccccc2)cc1` here?
Its Potency is inconclusive: 10 µM [inhibitor, partial curve, poor fit].

For `O=S(=O)(c1ccccc1)C1CC1(c1ccccc1)c1ccccc1` (centres undefined), which “activity, negative = inhibition” value is on record?
Its value is inactive: -20.6%.

With `COCCCNC(=O)C1CCC(Cn2c(=O)c3sccc3n(Cc3ccc(F)cc3)c2=O)CC1` (centres undefined) as the molecule, how does the “activity, negative = inhibition” value read?
Its value is inactive: 3.47%.

With `Cc1cc(NC(=O)Nc2csc3c2CCCC3)ccc1Br` as the molecule, how does the Potency read?
The Potency was inconclusive: 5.62 µM [inhibitor, single point].

With `O=C(CNc1ccc(Cl)c(C(F)(F)F)c1)N1CCN(S(=O)(=O)c2ccccc2)CC1` as the molecule, how does the Potency read?
The Potency was active: 12.6 µM.

For `COc1ccc(N2C(=O)CC(N3CCC(O)(c4cccc(C(F)(F)F)c4)CC3)C2=O)cc1` (centres undefined), which “activity, negative = inhibition” value is on record?
The value was inactive: 19.3%.

With `Cc1ccc(NC(=O)COC(=O)c2ccc(C)c(S(=O)(=O)N3CCOCC3)c2)cc1` as the molecule, how does the “activity, negative = inhibition” value read?
Its value is inactive: 0%.

With `CCN1CCN(C(=O)/C=C/c2ccc3c(c2)OCO3)CC1` as the molecule, how does the Potency read?
Its Potency is inconclusive: 0.562 µM [inhibitor, full curve, poor fit].

With `Cc1ccc(-n2c(O)c(/C=N/Nc3ccc(S(=O)(=O)N4CCOCC4)cc3[N+](=O)[O-])c3ccccc3c2=O)c(C)c1` as the molecule, how does the Potency read?
Its Potency is inconclusive: 11.2 µM [inhibitor, partial curve].

For `Cc1ccc(S(=O)(=O)N[C@H](C(=O)N2CCC3(O)CCCCC3C2)c2ccccc2)cc1` (some centres undefined), which Potency is on record?
Its Potency is inconclusive: 0.1 µM [inhibitor, full curve, poor fit].

Which “activity, negative = inhibition” value does the source give for `c1cc2c3c(cccc3c1)NN=N2` here?
Its value is inactive: -2.61%.

Which Potency does the source give for `COc1ccc(C(=O)C2CCN(C(=S)NCCc3ccc(OC)c(OC)c3)CC2)cc1` here?
The Potency was inconclusive: 15.8 µM [inhibitor, single point].

For `O=C(c1ccco1)N1CCN(C(=O)N2c3ccccc3Sc3ccccc32)CC1`, which Potency is on record?
Its Potency is inconclusive: 4.47 µM [inhibitor, full curve, poor fit].

Which Potency does the source give for `COc1ccc(CCN2C(=O)N(c3ccc(F)cc3)C(=O)C2CC(=O)Nc2ccc(F)c(F)c2)cc1` (centres undefined) here?
The Potency was inconclusive: 14.1 µM [inhibitor, single point].

Which Potency does the source give for `COc1ccc(-c2ccc3oc(-c4ccc(OC)cc4)c(C#CC4(O)CCCCC4)c3c2)cc1` here?
The Potency was inconclusive: 35.5 µM [inhibitor, single point].

For `Cc1cc(C)cc(N(CC(=O)Nc2cccc(C)n2)S(=O)(=O)c2c(C)noc2C)c1`, which Potency is on record?
The Potency was inconclusive: 35.5 µM [inhibitor, single point].

Which Potency does the source give for `COc1cc2c(cc1OC)CN(C(=S)Nc1ccccc1Cl)CC2` here?
The Potency was inconclusive: 14.1 µM [inhibitor, single point].

— PubChem BioAssay AID588855 (National Center for Advancing Translational Sciences (NCATS), 2011)
